Laboratory results: PubChem BioAssay AID1508623 (National Center for Advancing Translational Sciences (NCATS), 2021)
Hit rate of the full screen: of about 48,000 compounds, about 450 (0.94%) were called active. About 19% were inconclusive and are not listed. The call rests on the fitted dose curve; in most records, active means well fitted inhibition curve with a large enough effect; inconclusive means small, poorly fitted or top-dose-only effect; inactive means no such curve, though single readings can be large or run the other way. Some of the results follow.

Test: Primary qHTS for Identification of Small Molecule Inhibitors of Huntingtin Promoter Activity; further: nearly all actives have a fitted effect of over 50% in size
Settings: HEK293 HTT promoter firefly luciferase reporter (activity 0% = vehicle and -100% = no light), 24 h; series mostly up to 57.5 µM; activity change, negative = inhibition: at the top concentration
In short: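 Firefly luciferase readout (Dual-Glo, 10 min RT) after 24 h, 37 °C compound exposure (final up to 57.5 uM) of HEK293 reporter cells cultured 24 h beforehand; PTC124 at 50 uM final as control inhibitor; activity scaled vehicle 0%, zero RLU -100%.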

Activity change, negative = inhibition, inactive:
N#Cc1ccc(S(=O)(=O)N2CCC(Oc3cccc(C(F)(F)F)c3)CC2)cc1 -26.7%
COc1cc(OC)c(OC)cc1CN1CCc2nc(Nc3ccc4c(c3)OCCO4)ncc2C1 -19.4%
CCCNC(=O)C1=CC(c2ccc3c(c2)OCO3)=NS(=O)(=O)N1C -15.3%
COc1ccc(CNC(=O)C(=O)Nc2c3c(nn2-c2ccccc2)CSC3)cc1 -16.5%
Cn1c(=O)c2c(nc(N3CCOCC3)n2Cc2cccc(Br)c2)n(C)c1=O -17.9%
Cc1ccccc1CNC(=O)Cc1ccc(NC(=O)N2CCCCc3ccccc32)cc1 -24.2%
Cc1nn2c(-c3ccco3)ccnc2c1-c1ccc(Br)cc1 23%
CCOc1ccc(C(=O)c2cn(CC(=O)Nc3cccc(OC)c3)c3cc4c(cc3c2=O)OCCO4)cc1 -17.3%
Cc1c(C(=O)N2CCCCC2)c(S(=O)(=O)NCc2ccc(N(C)C)cc2)c(C)n1C 10.3%
Cc1ccc(-c2cc(N)n(-c3ccc(C)cc3)n2)cc1 114%
CC(=O)OC[C@H]1O[C@@](COC(C)=O)(O[C@H]2O[C@H](COC(C)=O)[C@@H](OC(C)=O)[C@H](OC(C)=O)[C@H]2OC(C)=O)[C@@H](OC(C)=O)[C@@H]1OC(C)=O -7.6%
COc1ccccc1CNC(=O)C(C)n1ccc2cc(S(=O)(=O)N3CCCC3)ccc21 (stereo not given) -24.1%
COc1ccc(CNC(=O)c2ccc3nc(CCc4ccccc4)oc3c2)cc1 1.32%
CCOc1ccc(NC(=O)C2CCN(c3nnc(C)c4c(C)n(-c5ccccc5)nc34)CC2)cc1 -8.91%
Cc1ccc(-c2[nH]c3c(c2-c2c(-n4cccc4)n(C)c(=O)[nH]c2=O)c(=O)[nH]c(=O)n3C)cc1 -11%
CCOC(=O)c1c(C)oc2nc(C)nc(N3CCN(c4ccccc4F)CC3)c12 0.143%
Cc1ccc2[nH]cc(S(=O)(=O)c3ccc(C)c(C)c3)c(=O)c2c1 -17.9%
Cc1ccc(F)cc1NC(=O)CCc1c(C)nn(-c2ccc(N3CCOCC3)nn2)c1C -13.6%
CCN(CC)CCNc1ccc(CO)c2sc3ccccc3c(=O)c12 -27.6%
Cc1ccc(/C=C/c2onc(C)c2S(=O)(=O)N2CCC(C(=O)N3CCOc4ccc(C)cc43)CC2)cc1 -32.6%
COc1ccc(NC(=O)CCS(=O)(=O)c2nc(-c3ccc4c(c3)OCO4)cc(C(F)(F)F)n2)cc1 27.5%
CSc1ccc(C2CC(=O)Oc3c2c(=O)n(C)c2ccccc32)cc1 (stereo not given) -16.4%
COc1ccc(-c2cc(C(=O)Oc3ccc(C)cc3)c3cc(C)ccc3n2)cc1 2.78%
CCOc1ccc2nc3cc(N)ccc3c(N)c2c1 -19%
Cc1ccc(-c2nnc(Nc3ccc(OC(F)(F)Cl)cc3)c3ccccc23)cc1S(=O)(=O)NC(C)(C)CO -26.6%
N[C@@H](Cc1ccc(O)cc1)C(=O)O -4% [at 11.5 µM]
CCCCn1c(=N)c(S(=O)(=O)c2ccc(C)cc2)cc2c(=O)n3cc(C)ccc3nc21 1.38%
O=C(Nc1ccc(-c2nc3cc(NC(=O)c4ccc(F)cc4)ccc3o2)cc1)c1ccc(F)cc1 45.2%
O=C(COc1ccc(Cl)cc1)N1CCN(Cc2ccc3c(c2)OCO3)CC1 -17.3%
CCc1nn2c(=O)cc(COC(=O)c3ccc(NC(=O)CCc4ccccc4)cc3)nc2s1 -15.4%
O=C(COc1ccccc1)N(Cc1cccnc1)c1nc2c(F)cccc2s1 -12.8%
Nc1ccc(NC(=O)c2cccc(C(=O)Nc3ccc(N)cc3Cl)c2)c(Cl)c1 -20.5%
CCc1nc(SC)ncc1C(=O)N1CCN(c2cc(Cl)ccc2C)CC1 -17.1%
Cc1nn(C(C)C(=O)Nc2ccc(C(C)C)cc2)c(=O)c2c1sc1ccccc12 (stereo not given) -8.26%
CC(NC(=O)C1CCN(S(=O)(=O)c2ccccc2)CC1)c1ccccc1 (stereo not given) -23.1%
COc1cc(/C=C(\C#N)c2nc3ccccc3[nH]2)ccc1OCc1ccc(F)cc1 -24.8%
CCCN(CCC)CCCNC(=O)c1cnn(-c2ccc(F)cc2)c1-n1cccc1 -27.3%
Cc1cccc(-c2nn3c(=O)cc(CN4CCN(C(=O)c5ccccc5Br)CC4)nc3s2)c1 -10.5%
CCCn1c2ccccc2c2cnn(CC(=O)NCC3CCN(Cc4ccc(F)cc4)CC3)c(=O)c21 -9.88%
CN(Cc1cnc2nc(N)nc(N)c2n1)c1ccc(C(=O)N[C@@H](CCC(=O)O)C(=O)O)cc1
COc1ccccc1CNc1nc(-c2ccco2)nn1C(=O)c1cc(OC)c(OC)c(OC)c1 39.5%
Cc1ccccc1CNC(=O)C1=Cc2ccccc2OC1 15.9%
CCC(=O)C1=C(c2ccc(OC)c(OC)c2)N(C(=O)CC)n2c(CC)nnc2S1 -19.8%
Cc1ccc(NC(=O)c2c(NC(=O)Cc3ccccc3)sc3c2CCCC3)cc1 -19.7%
CC(=O)c1cccc(NC(=O)Cn2c(=O)oc3cc(S(=O)(=O)N4CCCC4)ccc32)c1 -32.4%
CC(=O)Nc1ccc(NC(=O)CCSCCc2ccccn2)cc1 -5.91%
CN(C)c1ccc(-c2nnc3n(Cc4ccccc4)c(=O)c4ccccc4n23)cc1 -13.2%
CN(C)c1ccc(CNC(=O)c2ccc(NC(=O)N3CCCCc4ccccc43)cc2)cc1 -10.3%
COc1ccc(-n2c(SCC(=O)Nc3cccc(C)c3C)nc3c([nH]c4ccccc43)c2=O)cc1 -4.48%
Cc1ccc2oc(=O)c3cc(C(=O)N4CCN(c5ccccc5F)CC4)sc3c2c1 2.87%
CCc1ccccc1NC(=O)C1CCN(c2cnccn2)CC1 -15.1%
CC(=O)c1nnn(-c2ccc(C)cc2Cl)c1C -15.3%
CC(=O)c1ccc(Nc2ccc3cc(S(=O)(=O)N4CCCC4)ccc3n2)cc1 0%
O=C(CCn1cnnn1)Nc1cc(C(F)(F)F)cc(C(F)(F)F)c1 -27.4%
COc1cc(NC(=O)CSc2nccn2C)cc(OC)c1OC -25.7%
COc1ccc2c(c1)c1c(c(=O)n(-c3ccc(OC)c(OC)c3)c(=O)n1Cc1ccccc1F)n2C -4.66%
CC(C)CCn1nnc2sc(-c3ccccc3)cc2c1=O 40.4%
CCCCSCCCNC(=O)c1cn(C)c2ccc(S(=O)(=O)N3CCCCCC3)cc2c1=O -11.3% [at 11.5 µM]
COc1cc(OC)c(NC(=O)c2nn(-c3ccc(C)cc3)c(=O)c3c2c2ccccc2n3C)cc1Cl -5.9%
O=C(Nc1cccc(C(=O)N2CCN(c3cccc(Cl)c3)CC2)c1)c1nsc2ccccc12 -5.8%
